{
  "source": "paper PMC9911399",
  "about": "“Two distinct binding modes provide the RNA-binding protein RbFox with extraordinary sequence specificity”",
  "binders": {"B1": {"name": "CCCUUUA (DNA:RNA)", "RNA": "GGGAGACCGGAAUUCAGAUUGUCCCCCUUUAUUAAAUCCCGUCGUAGCCACCA", "DNA 1": "CAATCTGAATTCCGGTCTCCC", "DNA 2": "TGGTGGCTACGACGGGATT"}, "B2": {"name": "GUAUAUC (DNA:RNA)", "RNA": "B1 RNA with C25G, C26U, C27A, U29A, A31C", "DNA 1": "CAATCTGAATTCCGGTCTCCC", "DNA 2": "TGGTGGCTACGACGGGATT"}, "B3": {"name": "AUGCCUU (DNA:RNA)", "RNA": "B1 RNA with C25A, C26U, C27G, U28C, U29C, A31U", "DNA 1": "CAATCTGAATTCCGGTCTCCC", "DNA 2": "TGGTGGCTACGACGGGATT"}, "B4": {"name": "CCGUUGU (DNA:RNA)", "RNA": "B1 RNA with C27G, U30G, A31U", "DNA 1": "CAATCTGAATTCCGGTCTCCC", "DNA 2": "TGGTGGCTACGACGGGATT"}, "B5": {"name": "CAGUUGU (DNA:RNA)", "RNA": "B1 RNA with C26A, C27G, U30G, A31U", "DNA 1": "CAATCTGAATTCCGGTCTCCC", "DNA 2": "TGGTGGCTACGACGGGATT"}, "B6": {"name": "AUCUACU (DNA:RNA)", "RNA": "B1 RNA with C25A, C26U, U29A, U30C, A31U", "DNA 1": "CAATCTGAATTCCGGTCTCCC", "DNA 2": "TGGTGGCTACGACGGGATT"}, "B7": {"name": "GCCAAAC (DNA:RNA)", "RNA": "B1 RNA with C25G, U28A, U29A, U30A, A31C", "DNA 1": "CAATCTGAATTCCGGTCTCCC", "DNA 2": "TGGTGGCTACGACGGGATT"}, "B8": {"name": "CAGCGGU (DNA:RNA)", "RNA": "B1 RNA with C26A, C27G, U28C, U29G, U30G, A31U", "DNA 1": "CAATCTGAATTCCGGTCTCCC", "DNA 2": "TGGTGGCTACGACGGGATT"}, "B9": {"name": "UUAUUAA (DNA:RNA)", "RNA": "B1 RNA with C25U, C26U, C27A, U30A", "DNA 1": "CAATCTGAATTCCGGTCTCCC", "DNA 2": "TGGTGGCTACGACGGGATT"}, "B10": {"name": "CUAUGAU (DNA:RNA)", "RNA": "B1 RNA with C26U, C27A, U29G, U30A, A31U", "DNA 1": "CAATCTGAATTCCGGTCTCCC", "DNA 2": "TGGTGGCTACGACGGGATT"}, "B11": {"name": "UUUCUCA (DNA:RNA)", "RNA": "B1 RNA with C25U, C26U, C27U, U28C, U30C", "DNA 1": "CAATCTGAATTCCGGTCTCCC", "DNA 2": "TGGTGGCTACGACGGGATT"}, "B12": {"name": "AGUACUG (DNA:RNA)", "RNA": "B1 RNA with C25A, C26G, C27U, U28A, U29C, A31G", "DNA 1": "CAATCTGAATTCCGGTCTCCC", "DNA 2": "TGGTGGCTACGACGGGATT"}, "B13": {"name": "ACACCAC (DNA:RNA)", "RNA": "B1 RNA with C25A, C27A, U28C, U29C, U30A, A31C", "DNA 1": "CAATCTGAATTCCGGTCTCCC", "DNA 2": "TGGTGGCTACGACGGGATT"}, "B14": {"name": "CUGAUCC (DNA:RNA)", "RNA": "B1 RNA with C26U, C27G, U28A, U30C, A31C", "DNA 1": "CAATCTGAATTCCGGTCTCCC", "DNA 2": "TGGTGGCTACGACGGGATT"}, "B15": {"name": "AAUGACG (DNA:RNA)", "RNA": "GGGAGACCGGAAUUCAGAUUGUCCAAUGACGUUAAAUCCCGUCGUAGCCACCA", "DNA 1": "CAATCTGAATTCCGGTCTCCC", "DNA 2": "TGGTGGCTACGACGGGATT"}, "B16": {"name": "AAACAGG (DNA:RNA)", "RNA": "B15 RNA with U27A, G28C, C30G", "DNA 1": "CAATCTGAATTCCGGTCTCCC", "DNA 2": "TGGTGGCTACGACGGGATT"}, "B17": {"name": "GGUCGCU (DNA:RNA)", "RNA": "B15 RNA with A25G, A26G, G28C, A29G, G31U", "DNA 1": "CAATCTGAATTCCGGTCTCCC", "DNA 2": "TGGTGGCTACGACGGGATT"}, "B18": {"name": "AACAAUG (DNA:RNA)", "RNA": "B15 RNA with U27C, G28A, C30U", "DNA 1": "CAATCTGAATTCCGGTCTCCC", "DNA 2": "TGGTGGCTACGACGGGATT"}, "B19": {"name": "UGUGUAA (DNA:RNA)", "RNA": "B15 RNA with A25U, A26G, A29U, C30A, G31A", "DNA 1": "CAATCTGAATTCCGGTCTCCC", "DNA 2": "TGGTGGCTACGACGGGATT"}, "B20": {"name": "GCCGCCC (DNA:RNA)", "RNA": "B15 RNA with A25G, A26C, U27C, A29C, G31C", "DNA 1": "CAATCTGAATTCCGGTCTCCC", "DNA 2": "TGGTGGCTACGACGGGATT"}, "B21": {"name": "ACGAAAC (DNA:RNA)", "RNA": "B15 RNA with A26C, U27G, G28A, C30A, G31C", "DNA 1": "CAATCTGAATTCCGGTCTCCC", "DNA 2": "TGGTGGCTACGACGGGATT"}, "B22": {"name": "ACAUGGG (DNA:RNA)", "RNA": "B15 RNA with A26C, U27A, G28U, A29G, C30G", "DNA 1": "CAATCTGAATTCCGGTCTCCC", "DNA 2": "TGGTGGCTACGACGGGATT"}, "B23": {"name": "CGGCAGG (DNA:RNA)", "RNA": "B15 RNA with A25C, A26G, U27G, G28C, C30G", "DNA 1": "CAATCTGAATTCCGGTCTCCC", "DNA 2": "TGGTGGCTACGACGGGATT"}, "B24": {"name": "UCCGGAC (DNA:RNA)", "RNA": "B1 RNA with C25U, U28G, U29G, U30A, A31C", "DNA 1": "CAATCTGAATTCCGGTCTCCC", "DNA 2": "TGGTGGCTACGACGGGATT"}, "B25": {"name": "AGGGAAG (DNA:RNA)", "RNA": "B15 RNA with A26G, U27G, C30A", "DNA 1": "CAATCTGAATTCCGGTCTCCC", "DNA 2": "TGGTGGCTACGACGGGATT"}, "B26": {"name": "ACUGAUU (DNA:RNA)", "RNA": "B15 RNA with A26C, C30U, G31U", "DNA 1": "CAATCTGAATTCCGGTCTCCC", "DNA 2": "TGGTGGCTACGACGGGATT"}, "B27": {"name": "UGCGAAC (DNA:RNA)", "RNA": "B15 RNA with A25U, A26G, U27C, C30A, G31C", "DNA 1": "CAATCTGAATTCCGGTCTCCC", "DNA 2": "TGGTGGCTACGACGGGATT"}, "B28": {"name": "ACUUCCU (DNA:RNA)", "RNA": "B15 RNA with A26C, G28U, A29C, G31U", "DNA 1": "CAATCTGAATTCCGGTCTCCC", "DNA 2": "TGGTGGCTACGACGGGATT"}, "B29": {"name": "ACCUUUA (DNA:RNA)", "RNA": "B1 RNA with C25A", "DNA 1": "CAATCTGAATTCCGGTCTCCC", "DNA 2": "TGGTGGCTACGACGGGATT"}, "B30": {"name": "GAAUAUC (DNA:RNA)", "RNA": "B15 RNA with A25G, U27A, G28U, C30U, G31C", "DNA 1": "CAATCTGAATTCCGGTCTCCC", "DNA 2": "TGGTGGCTACGACGGGATT"}, "B31": {"name": "GCUCGGA (DNA:RNA)", "RNA": "B1 RNA with C25G, C27U, U28C, U29G, U30G", "DNA 1": "CAATCTGAATTCCGGTCTCCC", "DNA 2": "TGGTGGCTACGACGGGATT"}},
  "note": "Where a chain is given by its changes, count along the chain named. Some of the results follow.",
  "data": [
    {"target": "T1, RBFOX1 RRM (Homo sapiens, UniProt Q9NWB1 109-208)", "T1 sequence": "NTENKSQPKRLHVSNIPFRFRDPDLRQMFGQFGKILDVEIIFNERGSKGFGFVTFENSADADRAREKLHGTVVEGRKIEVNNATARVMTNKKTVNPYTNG", "test": "EMSA; HiTS-Eq, 1 nM pool, 10 min; buffer printed only for the single-RNA assays: 10 mM Tris pH 7.5, 150 mM NaCl, 3.4 mM EDTA, 0.001% NP-40, 30 C", "settings": "tags: His6 N-terminal (pET28a); label: 5' 32P", "summary_of_the_method": "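Relative association constants, normalised to the cognate motif, were derived by comparing read counts of each RNA species with those of the control reaction. The RNA sequenced was the free fraction, separated by 8% native PAGE after a 10 min equilibration in 50 µL of 1 nM 5′-radiolabelled RNA (7 randomized nucleotides) with increasing concentrations of purified wild-type or mutant RbFox RRM.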", "values": [
      {"binder": "B1", "binding signal": "0.00199 KA relative to UGCAUGU"},
      {"binder": "B2", "binding signal": "0.00955 KA relative to UGCAUGU"},
      {"binder": "B3", "binding signal": "0.00845 KA relative to UGCAUGU"},
      {"binder": "B4", "binding signal": "0.0105 KA relative to UGCAUGU"},
      {"binder": "B5", "binding signal": "0.0137 KA relative to UGCAUGU"},
      {"binder": "B6", "binding signal": "0.00271 KA relative to UGCAUGU"},
      {"binder": "B7", "binding signal": "0.00274 KA relative to UGCAUGU"},
      {"binder": "B8", "binding signal": "0.0136 KA relative to UGCAUGU"},
      {"binder": "B9", "binding signal": "0.00893 KA relative to UGCAUGU"},
      {"binder": "B10", "binding signal": "0.0121 KA relative to UGCAUGU"},
      {"binder": "B11", "binding signal": "0.00766 KA relative to UGCAUGU"},
      {"binder": "B12", "binding signal": "0.0112 KA relative to UGCAUGU"},
      {"binder": "B13", "binding signal": "0.000358 KA relative to UGCAUGU"},
      {"binder": "B14", "binding signal": "0.00751 KA relative to UGCAUGU"},
      {"binder": "B15", "binding signal": "0.00561 KA relative to UGCAUGU"},
      {"binder": "B16", "binding signal": "0.00287 KA relative to UGCAUGU"},
      {"binder": "B17", "binding signal": "0.0119 KA relative to UGCAUGU"},
      {"binder": "B18", "binding signal": "0.00446 KA relative to UGCAUGU"},
      {"binder": "B19", "binding signal": "0.0108 KA relative to UGCAUGU"},
      {"binder": "B20", "binding signal": "0.0117 KA relative to UGCAUGU"},
      {"binder": "B21", "binding signal": "0.00351 KA relative to UGCAUGU"},
      {"binder": "B22", "binding signal": "0.0064 KA relative to UGCAUGU"},
      {"binder": "B23", "binding signal": "0.0105 KA relative to UGCAUGU"},
      {"binder": "B24", "binding signal": "0.00639 KA relative to UGCAUGU"},
      {"binder": "B25", "binding signal": "0.0177 KA relative to UGCAUGU"},
      {"binder": "B26", "binding signal": "0.00846 KA relative to UGCAUGU"},
      {"binder": "B27", "binding signal": "0.0141 KA relative to UGCAUGU"},
      {"binder": "B28", "binding signal": "0.00215 KA relative to UGCAUGU"},
      {"binder": "B29", "binding signal": "0.00173 KA relative to UGCAUGU"},
      {"binder": "B30", "binding signal": "0.00604 KA relative to UGCAUGU"},
      {"binder": "B31", "binding signal": "0.0169 KA relative to UGCAUGU"}
    ]}
  ]
}
